The values that follow come from US20240216428A1.

The target of this assay is CD5 (UniProt P06127). Kind of assay: cell-based or functional assay.
Sequence of UniProt P06127 (P06127 25-495 limits assumed): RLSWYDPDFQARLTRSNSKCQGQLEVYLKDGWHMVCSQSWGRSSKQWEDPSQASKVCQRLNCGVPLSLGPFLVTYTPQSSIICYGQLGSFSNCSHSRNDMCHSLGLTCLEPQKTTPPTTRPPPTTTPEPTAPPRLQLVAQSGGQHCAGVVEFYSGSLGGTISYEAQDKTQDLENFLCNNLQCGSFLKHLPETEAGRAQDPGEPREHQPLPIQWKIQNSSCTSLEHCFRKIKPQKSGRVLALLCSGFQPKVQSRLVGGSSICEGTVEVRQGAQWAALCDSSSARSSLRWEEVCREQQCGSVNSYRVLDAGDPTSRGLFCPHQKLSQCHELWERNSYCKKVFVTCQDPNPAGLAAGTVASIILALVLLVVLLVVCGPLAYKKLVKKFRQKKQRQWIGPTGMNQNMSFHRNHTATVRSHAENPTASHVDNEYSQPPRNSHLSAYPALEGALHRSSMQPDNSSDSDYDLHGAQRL

B1: CD5#11-CAR (chimeric antigen receptor with anti-CD5 scFv #11 as antigen-binding site) (protein, part only; not given: CD28, CD3-zeta and DAP10 signaling parts, not shown: small tags and cut ends)
chain, part: [letters of about 100 residues omitted]RSYAGEYFDHWGQGTLVTVSSGGGGSGGGGSGGGGSDIQMTQSPSSLSASVGDRVTITCRASQSISNWLNWYQQKPGKAPKLLIYDASSLQSGVPSRFSGSGSGTDFTLTISSLQPEDFATYYCQQSYSFPWTFGQGTKVEIKASTGPGGQHHHHHHGAWSHPQFEK
The molecule B1 returned a cytotoxicity against cancer cells expressing CD5, fold over the control group (single cell lines) (times higher than the control group) of 10 and a cytotoxicity against normal cells expressing CD5, fold over the control group (single cell lines) (times higher than the control group) of 2.
